Measured values as given in PMC6919601, “Identification of Plasmodium dipeptidyl aminopeptidase allosteric inhibitors by high throughput screening” (PLoS ONE, 2019).
About 230 (0.21%) of roughly 110,000 compounds showed an effect of 50% or more. This is one part of the list.

Target: DPAP1 (Plasmodium falciparum, UniProt Q8IIJ9)
Assay: primary screen, percent inhibition; read by cleavage of a fluorogenic dipeptide substrate; higher = more effect of the substance
Parameters: species or system P. falciparum D10 trophozoite lysates; single well
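Also: 30 min substrate incubation versus DMSO and 10 µM JCP410 controls.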

DPAP1, sequence (Q8IIJ9 whole entry, looked up): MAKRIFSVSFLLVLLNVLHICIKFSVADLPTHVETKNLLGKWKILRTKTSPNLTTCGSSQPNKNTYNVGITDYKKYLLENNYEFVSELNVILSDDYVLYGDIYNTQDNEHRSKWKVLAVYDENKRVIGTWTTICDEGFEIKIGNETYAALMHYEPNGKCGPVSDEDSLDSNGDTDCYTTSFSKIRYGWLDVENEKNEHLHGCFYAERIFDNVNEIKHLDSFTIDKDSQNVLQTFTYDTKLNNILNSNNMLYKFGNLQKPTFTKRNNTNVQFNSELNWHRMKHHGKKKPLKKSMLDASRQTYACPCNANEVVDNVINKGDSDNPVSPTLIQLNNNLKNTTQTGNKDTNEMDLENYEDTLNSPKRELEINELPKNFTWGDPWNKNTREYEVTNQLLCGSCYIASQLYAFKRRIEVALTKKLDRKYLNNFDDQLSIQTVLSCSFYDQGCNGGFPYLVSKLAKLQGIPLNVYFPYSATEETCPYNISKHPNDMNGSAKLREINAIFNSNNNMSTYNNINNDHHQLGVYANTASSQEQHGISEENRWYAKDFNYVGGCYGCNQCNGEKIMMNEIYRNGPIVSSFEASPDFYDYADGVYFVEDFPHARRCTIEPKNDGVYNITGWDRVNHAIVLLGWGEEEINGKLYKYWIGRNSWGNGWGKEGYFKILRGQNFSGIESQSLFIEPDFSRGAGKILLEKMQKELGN

SMILES | % Inhibition @ 10 uM [%]
O=C(O)C1CC=CCC1C(=O)NCc1ccc(Cl)c(Cl)c1 (centres unmarked) | 2.03
O=C(/C=C/c1ccccc1)c1ccc2c(c1)OCCO2 | -0.414
Cc1ccc(NC(=O)C(c2ccccc2)c2ccccc2)cc1NC(=O)C(c1ccccc1)c1ccccc1 | 2.54
O=C(O)/C=C/C(=O)NCc1ccccc1 | -0.807
O=C(NCC1CCCO1)c1cc2n(n1)C(C(F)(F)F)CC(c1cccs1)N2 (centres unmarked) | 0.812
Cc1ccc(C)c(N2CCN(S(=O)(=O)c3ccc(F)cc3)CC2)c1 | 3.35
Cc1c(C(=O)NC(C)C)sc2ncn(CC(=O)N3CCC(C)CC3)c(=O)c12 | 8.71
CC(C)N(CCCNC(=O)c1ccc(CS(=O)(=O)Cc2ccccc2F)o1)Cc1ccccc1 | 2.35
N#CC1=C(N)N(c2c(F)cccc2F)C2=C(C(=O)CCC2)C1c1cccs1 (centres unmarked) | -3.46
N#C/C(=C\c1ccc(O)cc1)c1nc(-c2ccc(Cl)cc2)cs1 | -7.55
COc1cccc(/C=C2\C(=O)/C(=C/c3cccc(OC)c3OC)C3CCC2N3C)c1OC | -1.31
COc1ccc(C2(C#N)CCC(=O)CC2)cc1OC | -2.63
Cc1cccc2nc3ccccc3cc12 | -5.34
N#Cc1c(-c2ccccc2)nc2n(-c3ccccc3)nc(C(=O)Nc3ccccc3)n2c1=O | -0.759
CC1CCN(S(=O)(=O)N2CCCC(C(=O)NC3CCCCC3C)C2)CC1 (centres unmarked) | -3.12
COCCNC(=O)c1cc2c(=O)oc3ccc(C)cc3c2s1 | 2.5
CCOC(=O)c1c(NC(=O)C2CCCN2S(=O)(=O)c2ccccc2)sc2c1CCCC2 (centres unmarked) | 0.408
Nc1c(NCc2ccccc2)c2ccccc2oc1=O | -0.636
O=C(NCCCN1CCOCC1)c1cc(-c2ccc(O)cc2)on1 | -1.96
Cc1ccc(C2=C/C(=C/c3ccc(-c4cccc(C(=O)O)c4)o3)C(=O)O2)cc1 | 5.1
NC(=O)C1CCCN(C/C=C/c2ccccc2)C1 (centres unmarked) | 3.48
Cc1ccc(N2C(=O)c3ccccc3C2Nc2nc(C)cs2)nc1 (centres unmarked) | -2.83
Cc1oc(-c2ccc(C(=O)NC3CCCCCC3)cc2)nc1CS(=O)(=O)c1ccccc1 | -8.88
Fc1ccccc1CSCc1nc2ccccc2[nH]1 | -4.6
CCCN(CCC)CCNC(=O)C1CCN(S(=O)(=O)c2cccc3nsnc23)CC1 | -3.58
Cc1ccc(C)c(N2C(=O)CC3CS(=O)(=O)CC32)c1 (centres unmarked) | -0.105

SMILES | % Inhibition @ 10 uM [%]
O=c1[nH]c(=O)n(Cc2ccccc2)cc1Cl | 3.61
CCOc1cc(C2c3c(oc4ccccc4c3=O)C(=O)N2c2nccs2)ccc1OCCC(C)C (centres unmarked) | 2.16
CCCC1=NN(C(=O)c2ccccc2OC)C(O)(C(F)(F)F)C1 (centres unmarked) | -12.5
COc1cc(CCNC(=O)c2cc(C)nc3c2c(C)nn3-c2ccccc2)cc(OC)c1OC | 0.44
COc1ccc(OCC(=O)NCc2ccco2)cc1 | 4.32
C=CCSc1nc2c(C)cccc2[nH]1 | 2.25
Cc1nnc(N2CCC(C(=O)NCCN(C)C)CC2)c2nn(-c3ccccc3)c(C)c12 | -2.68
CCc1cccc2c1Sc1ccccc1CC2N1CCNCC1 (centres unmarked) | 2.55
N#Cc1c(-c2cccs2)cc(-c2ccccc2)nc1S | 20.6
Cc1nc2c(C(=O)NC(C)C)cnn2c(C)c1Cc1ccc(Cl)cc1 | 2.79
Brc1ccc(N2N=C(c3cccnc3)CC2c2ccccc2)cc1 (centres unmarked) | 5.73
CCc1ccc(NC(=O)Cn2cnc3scc(-c4ccc(OC)cc4)c3c2=O)cc1 | 6.73
O=S(=O)(Nc1ncccn1)c1ccc2ccccc2c1 | -3.04
CCCN1CCC(N(C)CCN(C)C)CC1 | -0.292
CC1CC(C)(C)NC(=S)N1CCC(=O)N1CC=C(c2ccccc2)CC1 (centres unmarked) | -2.4
C=CCC(OC(=O)N[C@@H](CC(C)C)C(=O)NCC#N)c1ccccc1 (some centres unmarked) | -4.72
Oc1ccc(Cl)cc1-c1cc(-c2ccc(Cl)cc2)[nH]n1 | 4.61
CCOC(=O)c1c(NC(=O)c2ccc(S(=O)(=O)N(C)C)cc2)sc2c1CCN(CC)C2 | 7.66
O=C(NCc1nnc(S)n1-c1ccccc1)c1cccs1 | 6.51
CCn1nc(C)c2c(C(F)(F)C(F)(F)F)cc(=O)n(CC(=O)NC3CCCCC3)c21 | -0.154
c1ccc(CCn2cnnn2)cc1 | -5.96
CCOc1ccc(CCNC(=O)Cn2ncn3c(cc4sc(CC)cc43)c2=O)cc1OCC | 1.68
O=S(=O)(NCCc1cccs1)c1ccc(-c2ccc(O)nn2)o1 | -4.41
CC(=O)c1ccc(NC(=O)c2cc3nc(C(F)F)cc(C(F)F)n3n2)cc1 | -2.09
O=C(O)c1cc([N+](=O)[O-])c(NCCCO)c([N+](=O)[O-])c1 | -0.128
COC(=O)C1=CN(CC2CCCO2)C=C(C(=O)OC)C1c1cccc(O)c1 (centres unmarked) | -3.14

SMILES | % Inhibition @ 10 uM [%]
CC(=O)c1c(N2CCOCC2)nc(=O)n(-c2ccccc2)c1C | -4.93
COc1cc(OC)cc(C(=O)Nc2ccc(S(=O)(=O)Nc3cc(C)on3)cc2)c1 | 3.65
COc1ccc(OC)c(S(=O)(=O)NCC2CCCO2)c1 (centres unmarked) | -1.06
Cc1c(C(=O)NCc2c(F)cc(F)cc2F)oc2ccc(S(=O)(=O)N3CCCC(C)C3)cc12 (centres unmarked) | -1.31
CN(C)C(CNC(=O)c1ccc(Br)cc1)c1ccco1 (centres unmarked) | 6.34
O=c1c2ccccc2nc(CNC2CCCCC2)n1-c1ccc(F)cc1 | 3.66
Cc1cccc(CSc2nc3n(n2)C(c2cccs2)C2=C(O)CCCC2=N3)c1 (centres unmarked) | 2.55
CCC(Sc1nc2ccccc2c2nc3ccccc3n12)C(=O)N1CCOCC1 (centres unmarked) | 1.24
C=C(C)CC(C(=O)NCC#N)c1cccc(Br)c1 (centres unmarked) | 1.7
O=C(c1ccc2c(c1)OCO2)N1CCN(C(c2ccccc2)c2ccccc2)CC1 | 3.81
CNC(=O)c1cc2c(=O)n3ccccc3nc2n(CCCOC)c1=N | 0.279
Cc1cccc(CN2CCN(Cc3ccccc3)CC2)c1 | -1.07
CC1CCc2c(sc3nnn(CC(N)=O)c(=O)c23)C1 (centres unmarked) | -4.85
O=C(COc1ccc(Cl)cc1)O/N=C1\CCCc2oc3c(c21)CCCC3 | -1.82
CC12CNCC(C)(CN(Cc3ccccc3)C1)C2 | 1.54
CCOC(=O)C1=CN(C(C)C)C=C(C(=O)OCC)C1c1ccccc1Cl | -1.48
NC(=O)c1cc2cc(F)ccc2oc1=O | 0.351
N#CCNC(=O)[C@H](Cc1c[nH]c2cccc(F)c12)NC(=O)OCc1ccccc1 | -8.26
Cn1c(=O)c2c(nc(N3CCc4ccccc4C3)n2Cc2ccccc2)n(C)c1=O | 3.06
O=c1nc(/C=C/c2ccc(Cl)cc2)oc2ccccc12 | -4.57
Cc1c(C(=O)NCCCn2ccnc2)oc2ccccc12 | -1.25
CC(=O)Nc1ccc(S(=O)(=O)NC(C)c2ccccc2)cc1 (centres unmarked) | -4.05
C=CCN1C(=O)S/C(=C/c2cc(C)n(-c3ccc(C#N)cc3)c2C)C1=O | 6.42
Cc1cc(=O)oc2cc3c(cc12)OCO3 | 2.94
Cc1cc(C)c2c(n1)nn1c(C)c(CCC(=O)N3CCCCCC3)c(C)nc21 | -0.72
O=C(COc1ccccc1Cl)N(Cc1ccccc1F)C1CCS(=O)(=O)C1 (centres unmarked) | 2.02

SMILES | % Inhibition @ 10 uM [%]
COc1cccc(S(=O)(=O)NCC(=O)N2CCCCCC2)c1 | 2.48
CSc1ncc(C(=O)NCCCN(C)Cc2ccccc2)c(-c2ccccc2)n1 | 2.25
Cc1ccc(CNCCCSc2nnnn2C)cc1 | -6.6
O=C(CSc1nc2ccccc2o1)Nc1ccccc1Br | -18.1
c1ccc2c(c1)nc1n2CN(CCN2CCOCC2)CN1 | 0.032
Cc1cc(C)c2nc(N3CCC(C(=O)NCCCN(C)C4CCCCC4)CC3)sc2c1 | 0.137
CCOC(=O)c1c(NC(=O)Cc2ccc(OCC)c(OCC)c2)sc2c1CCC2 | -1.24
O=C1c2ccccc2-c2nc(=O)c3c4c(sc3n21)CCCC4 | 4.6
Cc1ccc(-c2cc(NC(=O)c3oc4ccccc4c3C)on2)cc1 | -1.47
Cc1sc2c(c1C)c(=O)n(Cc1ccccc1)c(=O)n2Cc1ccccc1F | 9.94
CC(C)(C)c1ccc(-c2nn3c(Cn4nnc5ccccc54)nnc3s2)cc1 | 7.31
CN(CCc1ccccn1)Cc1ccc(Br)cc1 | -3.44
C=CCOc1ccc2c(=O)c(Oc3ccc(C)cc3)coc2c1 | 1.88
COc1ccc(NC(=O)Cn2cnc3scc(-c4ccc(OC)c(OC)c4)c3c2=O)cc1 | -3.41
O=C(c1ccc(N2C(=O)c3ccccc3C2=O)cc1)N1CCCC1 | 1.48
COc1cc(NC(=O)COc2ccc(Cl)cc2C)c(OC)cc1Cl | 2.6
Cc1ccc(S(=O)(=O)N2CCC(C(=O)Nc3cccc(C(=O)O)c3)CC2)cc1 | -6.68
Clc1ccc(CN2CCN(c3ccc(Cl)cc3)CC2)cc1 | 4.73
COc1ccccc1NC(=O)C(C#N)=C1CCCCCC1 | 4.67
CN1C(=O)NC(=O)/C(=C/c2ccc(Br)o2)C1=O | 3.06
COC(=O)c1sccc1NC(=O)c1cc2ccc3cccnc3c2[nH]1 | 3.44
COc1ccccc1NC(=O)C1=C(C)NC(SCC(N)=O)=C(C#N)C1c1ccccc1 (centres unmarked) | 7.69
COc1ccc(/C=C(\NC(=O)c2ccc(C)cc2)C(=O)NCCCC(=O)O)cc1 | -1.52
